{
  "source": "PubChem BioAssay AID624296",
  "about": "(National Center for Advancing Translational Sciences (NCATS), 2012)",
  "note": "In all, about 350,000 compounds went through this assay and about 9,900 (2.8%) were called active. Inconclusive results, whose numbers are uncertain, are shown with a selection of clear calls. Calls come from the whole dose curve; as a rule, active = well fitted activation curve with a large enough effect; inconclusive = small, poorly fitted or top-dose-only effect; inactive = no such curve, though single readings can be large or run the other way. Potencies of inconclusive entries are left out as doubtful fits. Potency is the fitted concentration of half-maximal effect; tags give direction and shape of the fitted curve.",
  "data": [
    {"test": "A quantitative high throughput screen for small molecules that induce DNA re-replication in MCF 10a normal breast cells; note: nearly all actives have a fitted effect of over 50% in size.", "conditions": "MCF 10A DNA re-replication, Hoechst nuclear intensity, 48 h; series mostly up to 46.1 µM", "values": [
      {"smiles": "O=c1c2ccccc2ncn1CCCCOc1ccccc1F", "Potency": "inconclusive [activator, partial curve, poor fit]"},
      {"smiles": "CCOc1ccc(NC(=O)C(=O)N/N=C\\c2ccc(CNS(=O)(=O)c3ccccc3)o2)cc1", "Potency": "inconclusive [activator, single point]"},
      {"smiles": "S=C1NC[C@H](Cc2cccc3ccccc23)N1CC1CCCCC1", "Potency": "inconclusive [activator, partial curve, poor fit]"},
      {"smiles": "COc1ccc(CNC(=O)C(c2ccncc2)N(C(=O)Cc2cccs2)c2ccc(C)cc2)cc1", "note": "(configuration not stated)", "Potency": "inconclusive [activator, single point]"},
      {"smiles": "CCOc1ccc(NC(=O)CN(C)C(=O)C2CCCC2)cc1OCC", "Potency": "active: 0.651 µM"},
      {"smiles": "O=C(Nc1ccc(O)cc1)c1c(O)c2c([nH]c1=O)CCCC2", "Potency": "inactive"},
      {"smiles": "CCOC(=O)C1(CCCc2ccccc2)CCN(C(=O)CCOC)CC1", "Potency": "inactive"},
      {"smiles": "CCN(CC)CCCNC(=O)C1c2ccccc2C(=O)N(C)C1c1ccc(OC)cc1", "note": "(configuration not stated)", "Potency": "inconclusive [activator, partial curve, poor fit]"},
      {"smiles": "C=C1CC(COc2cc(=O)oc3ccccc23)(c2ccccc2)OC1=O", "note": "(configuration not stated)", "Potency": "active: 2.59 µM"},
      {"smiles": "O=C(O)c1ccc(NS(=O)(=O)c2cccc(C(=O)Nc3ccccc3[N+](=O)[O-])c2)cc1", "Potency": "inconclusive [activator, single point]"},
      {"smiles": "Cc1ccc(C(C)C)c(OCCCN(C)Cc2ccccc2)c1", "Potency": "active: 23.1 µM"},
      {"smiles": "CCOC(=O)C1=C(COC(=O)c2ccc(Cl)c(S(=O)(=O)N3CCOCC3)c2)NC(=O)NC1C", "note": "(configuration not stated)", "Potency": "inactive"},
      {"smiles": "CCc1cccc(C)c1NC(=O)COC(=O)c1c2c(nc3ccccc13)/C(=C\\c1cccs1)CCC2", "Potency": "active: 10.3 µM"},
      {"smiles": "CCn1c(CSCc2ccc(F)cc2)nnc1SCC(=O)N1CCN(c2ccccc2)CC1", "Potency": "inactive"},
      {"smiles": "CCCn1c(COc2ccccc2)nc2ccccc21", "Potency": "inconclusive [activator, single point]"},
      {"smiles": "Cc1cccc(N(Cc2ccccc2)C(=O)CSC(C)C(=O)Nc2cc(C)on2)c1", "note": "(configuration not stated)", "Potency": "inconclusive [activator, single point]"},
      {"smiles": "CCOc1ccc(C(NC(=O)/C=C/c2ccco2)c2ccc(OC)c(OC)c2)cc1", "note": "(configuration not stated)", "Potency": "inconclusive [activator, single point]"},
      {"smiles": "COc1cc(OC)cc(OC(=O)c2cccc(S(=O)(=O)N3CCN(C)CC3)c2)c1", "Potency": "inconclusive [activator, partial curve, poor fit]"},
      {"smiles": "COc1ccc(CCNC(=O)c2cc3c(=O)n4cccc(C)c4nc3n(CC3CCCO3)c2=N)cc1", "note": "(configuration not stated)", "Potency": "active: 9.2 µM"},
      {"smiles": "O=C(NC(=S)Nc1ccccc1N1CCCC1)c1ccc(-c2cccc([N+](=O)[O-])c2)o1", "Potency": "inactive"},
      {"smiles": "CCC1CCc2sc(C(=O)N3CCCN(C)CC3)cc2C1", "note": "(configuration not stated)", "Potency": "inconclusive [activator, partial curve]"},
      {"smiles": "CN(C(=O)c1ccc(NC(=O)Cc2ccc(NC(=O)C3CCN(C(=O)C4CCCCC4)CC3)cc2)cc1)C1CC1", "Potency": "inactive"},
      {"smiles": "CCCCNC(=O)CS(=O)Cc1nc(-c2cccc(C)c2)oc1C", "note": "(configuration not stated)", "Potency": "inactive"},
      {"smiles": "COCCn1nnnc1C(CC(C)C)N1CCN(c2nc3ccccc3s2)CC1", "note": "(configuration not stated)", "Potency": "inactive"},
      {"smiles": "CN(Cc1ccccc1)C(=O)COC(=O)c1cc(=O)[nH]c2ccccc12", "Potency": "inactive"},
      {"smiles": "CC1CCN(C(=O)CCNS(=O)(=O)c2ccccc2)CC1", "Potency": "inactive"},
      {"smiles": "CCC1=NN2C(=N)/C(=C\\c3cccn3-c3ccc(C)c(C)c3)C(=O)N=C2S1", "Potency": "inconclusive [activator, single point]"},
      {"smiles": "Cc1ccc(O)c(C2=Nc3ccccc3N=C(c3ccco3)C2)c1", "Potency": "inconclusive [activator, single point]"},
      {"smiles": "CC1CCc2c(sc(NC(=O)c3cccn3C)c2C(N)=O)C1", "note": "(configuration not stated)", "Potency": "inconclusive [activator, single point]"},
      {"smiles": "ClCc1nnc(-c2ccccc2)o1", "Potency": "inconclusive [activator, single point]"},
      {"smiles": "COc1ccc(C(C(=O)NC2CCCC2)N(C(=O)c2ccoc2C)c2cc(C)cc(C)c2)cc1", "note": "(configuration not stated)", "Potency": "inconclusive [activator, single point]"},
      {"smiles": "O=C(CCl)N=c1sccn1Cc1ccc(Cl)cc1Cl", "Potency": "inconclusive [activator, single point]"},
      {"smiles": "Cc1cccc(OCC(=O)Nc2ccc(N3CCN(S(C)(=O)=O)CC3)cc2)c1C", "Potency": "inactive"},
      {"smiles": "O=S(=O)(Cc1ccccc1)N1CCC(c2nc(-c3cccs3)no2)CC1", "Potency": "inactive"},
      {"smiles": "O=C(NCc1cccc(F)c1)c1cccc2c1C(=O)c1ccc(Cl)cc1S2(=O)=O", "Potency": "inconclusive [activator, single point]"},
      {"smiles": "COC(=O)[C@@H]1C[C@@]2(O)[C@H](O)[C@H](O)[C@H](O)C[C@H]2N1Cc1ccc(C)s1", "Potency": "inconclusive [activator, single point]"},
      {"smiles": "COc1ccc(C2=CC(=O)CC(c3ccc(F)cc3)C2)cc1", "note": "(configuration not stated)", "Potency": "inconclusive [activator, single point]"},
      {"smiles": "CCOc1cc(/C=N/Nc2ncnc(Cl)c2N)ccc1O", "Potency": "inconclusive [activator, single point]"},
      {"smiles": "O=C(CSc1ccc(Cl)cc1)c1ccco1", "Potency": "inactive"},
      {"smiles": "Cc1nc(-c2ccccc2)nc2[nH]c(C(C)C)cc(=O)c12", "Potency": "active: 9.2 µM"},
      {"smiles": "N#Cc1cccc2c1-c1ccccc1/C2=N/NC(N)=O", "Potency": "inconclusive [activator, single point]"},
      {"smiles": "COc1cc(S(=O)(=O)N2CCN=C2c2ccccc2)ccc1F", "Potency": "inconclusive [activator, single point]"},
      {"smiles": "COc1ccc(-c2cn[nH]c2-c2ccc(OCc3ccc(F)cc3)cc2O)cc1OC", "Potency": "active: 20.6 µM"},
      {"smiles": "CC(C)(C)c1ccc(CN2C3=NCCCN3c3ccccc32)cc1", "Potency": "inconclusive [activator, single point]"},
      {"smiles": "O=C(NC1CC2CCC(C1)N2Cc1ccccc1)c1ccccc1Br", "note": "(configuration not stated)", "Potency": "inactive"},
      {"smiles": "O=C(Nc1cccc(C(F)(F)F)c1)c1sc(Cl)nc1C(F)(F)F", "Potency": "active: 20.6 µM"},
      {"smiles": "CCOc1ccccc1NC(=O)C1(S(=O)(=O)c2ccc(Cl)cc2)CC1", "Potency": "inconclusive [activator, single point]"},
      {"smiles": "COC(=O)c1cc(Cl)c(NC(=O)/C=C/c2ccc(Cl)cc2Cl)cc1OC", "Potency": "active: 2.06 µM"},
      {"smiles": "CCCN(CCC)Cc1c(C(=O)N/N=C/c2c[nH]c3ccccc23)nnn1-c1nonc1N", "Potency": "inconclusive [activator, single point]"},
      {"smiles": "CC(C)(C)c1cc(C(=O)N2CCc3ccccc32)ccn1", "Potency": "inactive"},
      {"smiles": "O=C(CSc1ncnc2scc(-c3ccccc3)c12)NCc1ccc2c(c1)OCO2", "Potency": "inconclusive [activator, single point]"},
      {"smiles": "CCCCCCOC(=O)C(C#N)c1nc2ccccc2nc1N1CCCCC1", "note": "(configuration not stated)", "Potency": "inconclusive [activator, partial curve, poor fit]"},
      {"smiles": "CSc1ncccc1C(=O)OCC(=O)NC(C)CCc1ccccc1", "note": "(configuration not stated)", "Potency": "inconclusive [activator, partial curve, poor fit]"},
      {"smiles": "Cc1c(C(=O)NCCSCc2cccc(C(F)(F)F)c2)cnn1-c1ccc(Cl)cc1", "Potency": "inconclusive [activator, partial curve, poor fit]"},
      {"smiles": "CN(CC1CCCN(CCc2ccc(Cl)cc2)C1)C(=O)C(=O)c1ccco1", "note": "(configuration not stated)", "Potency": "inactive"},
      {"smiles": "COc1ccc(N2CCN(C(=O)Cn3nnc(-c4ccc(OC)c(OC)c4)n3)CC2)cc1", "Potency": "inconclusive [activator, single point]"},
      {"smiles": "CC(NC(=O)c1cc2c(=O)n3ccccc3nc2n(CC2CCCO2)c1=N)c1ccccc1", "note": "(configuration not stated)", "Potency": "active: 5.8 µM"},
      {"smiles": "O=C(CNc1cccc2ccccc12)N/N=C/c1ccc([N+](=O)[O-])o1", "Potency": "inconclusive [activator, single point]"},
      {"smiles": "Cc1n[nH]c(C)c1N1C(=O)c2cccc3c(N4CCCCCC4)ccc(c23)C1=O", "Potency": "inconclusive [activator, single point]"},
      {"smiles": "CCOC(=O)NC(=S)c1ccc[nH]1", "Potency": "inactive"},
      {"smiles": "c1ccc(Nc2scc(-c3ccccc3)[n+]2Cc2ccco2)cc1", "Potency": "inactive"},
      {"smiles": "O=C(NCc1ccc2c(c1)OCO2)C1CC(=O)N(c2ccc(Cl)cc2)C1", "note": "(configuration not stated)", "Potency": "inactive"},
      {"smiles": "O=C(NC(=S)Nc1ccc(CN2CCOCC2)cc1)c1cc2ccccc2o1", "Potency": "inactive"},
      {"smiles": "CC(C)NC(=O)C(=O)NCCc1ccc(Cl)cc1", "Potency": "inconclusive [activator, single point]"},
      {"smiles": "COc1cccc(/C=N/NC(=O)COc2cccc3cccnc23)c1O", "Potency": "inconclusive [activator, single point]"},
      {"smiles": "Cn1c(SCC(=O)Nc2ccc3c(c2)oc2ccccc23)nnc1-c1ccccc1", "Potency": "inconclusive [activator, partial curve]"},
      {"smiles": "COc1ccccc1-c1nc(NC(C)=O)n[nH]1", "Potency": "inactive"},
      {"smiles": "CC(C)C[C@H]1CNC(=O)C(=O)N1CC1CCN(CCc2ccc(-c3ccccc3)cc2)CC1", "Potency": "inconclusive [activator, full curve, poor fit]"},
      {"smiles": "CCOC(=O)Cc1csc(N/N=C\\c2ccc(N(C)C)cc2)n1", "Potency": "inconclusive [activator, full curve]"},
      {"smiles": "CC(C)C(=O)NC(c1ccccc1Cl)c1c(O)ccc2ccccc12", "note": "(configuration not stated)", "Potency": "inactive"},
      {"smiles": "O=C(CSc1nc2sc3c(c2c(=O)[nH]1)CCC3)NCCO", "Potency": "inconclusive [activator, single point]"},
      {"smiles": "Cc1ccc(NC(=O)CSc2ncnc3ccccc23)cc1S(=O)(=O)N1CCCCCC1", "Potency": "inconclusive [activator, partial curve, poor fit]"}
    ]}
  ]
}
